Measured values from the supplement of paper PMC12889115.
The list shows a part of the results. Cut-off read from the data, not from the text of the source: active = 25% or less and inactive = the rest. Most values come without repeats; read them as rough.

Legend:
[1] = tested on: Salmonella enterica serovar Typhimurium SL1344; test: bacterial growth OD600 after 18 h in MHB with 0.5 µg/mL polymyxin B; higher = more bacterial growth (less inhibition); conditions: 25 µM; polymyxin B 0.5 µg/mL; system: broth
Method: (§1)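 Secondary screen of the 553 primary hits at 25 µM. (i) S. Typhimurium SL1344 grown in Mueller-Hinton broth with 0.5 µg/mL polymyxin B, OD600 read after 18 h. (ii) SAFIRE assay: RAW 264.7 macrophages infected with S. Typhimurium sifB::gfp (MOI 30); compound added 2 h post-infection; cells fixed at 18 h; GFP-positive pixel fraction per macrophage imaged by confocal microscopy and expressed as % of DMSO control.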

[2] = tested on: Salmonella enterica serovar Typhimurium SL1344; test: intramacrophage bacterial GFP load (SAFIRE), percent of DMSO control (% of DMSO); higher = more intracellular bacteria (less inhibition); conditions: 25 µM; system: infected RAW 264.7 macrophages
Method: as §1
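Throughout, for bacterial growth OD600 after 18 h in MHB with 0.5 µg/mL polymyxin B: polymyxin B level opens the outer membrane while sparing the inner membrane, with novobiocin wells as reference growth inhibitor.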
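Throughout, for intramacrophage bacterial GFP load (SAFIRE), percent of DMSO control: compounds tested were the hits of an earlier 50 µM broth growth screen of a drug-like diversity library run with polymyxin B.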

Row | Compound | bacterial growth OD600 [1] | intramacrophage bacterial GFP load [2]
1 | CCN(CC)c1ncccc1CNC(=O)c1cccs1 | 0.581 | inactive: 89.4
2 | Cc1ccc(CN2CCCC2C(=O)Nc2cccc(-n3cccn3)c2)s1 (configuration not stated) | 0.005 | inactive: 108
3 | Cc1ccc(Cl)cc1N1CCN(C(=O)c2cn(CC3CCCO3)nn2)CC1 (configuration not stated) | 0.029 | inactive: 29.6
4 | CN(Cc1ccon1)c1ccc(-c2nc(Cc3ccc(F)cc3)no2)cn1 | 0.384 | inactive: 118
5 | Cc1cc(-c2cc(F)cc3c2OC(CNC(=O)C2(C)CC2)C3)ccc1F (configuration not stated) | 0 | inactive: 72.9
6 | Cc1ccccc1-c1cnc(-c2ccncc2)nc1C1CCCN(Cc2ccc(F)c(F)c2)C1 (configuration not stated) | -0.003 | active: 13.8
